Test results published in the antibiotic and cytotoxicity screens of Wong et al. (2023).
This is one part of the list.

Test system: HSkMC (human skeletal muscle cells)
Experiment: cytotoxicity call (relative viability < 0.9)
Details: 10 µM

Row | SMILES | cytotoxicity call
1 | O=C(O)[C@@H](O)[C@H](O)C(=O)O | inactive
2 | C[C@H]1CN([C@@H](C)CO)C(=O)c2cc(NC(=O)CCN3CCOCC3)ccc2O[C@@H]1CN(C)C(=O)Nc1ccc(F)cc1 | inactive
3 | COC(=O)C[C@@H]1CC[C@H]2[C@@H](COc3ccc(NS(=O)(=O)c4ccccc4Cl)cc3C(=O)N2C)O1 | inactive
4 | CC(C)C1=CC2=CCC3C(C)(C(=O)O)CCCC3(C)C2CC1 (stereo not given) | inactive
5 | COc1ccc(S(=O)(=O)N(C)C[C@@H]2Oc3ccc(NS(=O)(=O)c4cccs4)cc3C(=O)N([C@@H](C)CO)C[C@H]2C)cc1 | inactive
6 | Cc1noc(C)c1NC(=O)N(C)C[C@H]1Oc2ccc(NC(=O)CCN3CCOCC3)cc2CC(=O)N([C@H](C)CO)C[C@H]1C | inactive
7 | COc1ccc(C#Cc2cnc3c(c2)C(=O)N([C@H](C)CO)C[C@H](C)[C@H](CN(C)S(=O)(=O)c2ccc(F)cc2)O3)cc1OC | inactive
8 | C[C@@H]1CN([C@@H](C)CO)C(=O)c2c(c3ccccc3n2C)-c2ccccc2CO[C@@H]1CN(C)Cc1cccc(F)c1 | inactive
9 | O=C(CCCCCNC(=O)OCc1ccc(CO[C@@H]2C[C@H](c3ccc(Br)cc3)C=C(C(=O)N3CCCCCCC3)O2)cc1)NO | inactive
10 | CCCNC(=O)N(C)C[C@H]1Oc2ncc(-c3ccc(C(=O)N(C)C)cc3)cc2C(=O)N([C@@H](C)CO)C[C@H]1C | inactive
11 | C[C@@H]1CN([C@@H](C)CO)C(=O)c2cccc(NS(=O)(=O)c3ccc(F)cc3)c2O[C@H]1CN(C)C(=O)Nc1ccc(C(F)(F)F)cc1 | inactive
12 | CC1=CC2C(C(C)C)CCC(C)(O)C2CC1 (stereo not given) | inactive
13 | COc1cccc(CNC(=O)C[C@@H]2CC[C@H]3[C@@H](COC[C@H](O)CN3S(=O)(=O)c3ccc(C)cc3)O2)c1 | inactive
14 | CNCc1nncn1C(C)C | inactive
15 | CC[C@@]12O[C@H]3[C@@H](O)[C@H]4C[C@@H]3[C@@H]1[C@@H]4C(=O)N2C | inactive
16 | CC1C2CCC3C4CC=C5CC(N(C)C)CCC5(C)C4CCC32CN1C (stereo not given) | inactive
17 | COc1ccc(C#Cc2cnc3c(c2)C(=O)N([C@H](C)CO)C[C@@H](C)[C@H](CN(C)C(=O)CC2CC2)O3)cc1 | inactive
18 | COc1ccc(NC(=O)N(C)C[C@@H]2OCCCC[C@@H](C)Oc3ccc(NC(=O)NC4CCCCC4)cc3C(=O)N([C@H](C)CO)C[C@H]2C)cc1 | inactive
19 | C[C@]1(C(=O)NCCN2CCOCC2)c2ccccc2C(=O)N(Cc2cc(C(F)(F)F)cc(C(F)(F)F)c2)[C@H]1c1ccc(CO)cc1 | inactive
20 | C[C@@H]1CCCCO[C@H](CN(C)CC2CCCCC2)[C@H](C)CN([C@@H](C)CO)C(=O)c2cc(NC(=O)CCCCCC(=O)Nc3ccccc3N)ccc2O1 | inactive

Row | SMILES | cytotoxicity call
21 | C[C@H](CO)N1C[C@H](C)[C@@H](CN(C)C(=O)Nc2ccc(C(F)(F)F)cc2)OCc2cnnn2CCCC1=O | inactive
22 | Cc1ccc(S(=O)(=O)N(C)C[C@H]2Oc3ccc(NC(=O)C4CC4)cc3C(=O)N([C@H](C)CO)C[C@@H]2C)cc1 | inactive
23 | CC(C)NC(=O)N(C)C[C@@H]1Oc2ccc(NC(=O)C3CCCCC3)cc2C(=O)N([C@H](C)CO)C[C@H]1C | inactive
24 | C[C@@H]1CN([C@@H](C)CO)C(=O)Cc2cc(NC(=O)CCN3CCOCC3)ccc2O[C@@H]1CN(C)Cc1ccc(C(=O)O)cc1 | inactive
25 | C[C@@H]1CN([C@@H](C)CO)C(=O)c2cccc(NC(=O)C3CCOCC3)c2O[C@H]1CN(C)S(=O)(=O)c1ccc(F)cc1 | inactive
26 | C[C@@H]1CN([C@H](C)CO)C(=O)Cc2cc(NC(=O)CCC(F)(F)F)ccc2O[C@@H]1CN(C)C(=O)Nc1ccc(C(F)(F)F)cc1 | inactive
27 | COc1ccc(NC(=O)Nc2ccc3c(c2)C(=O)N([C@H](C)CO)C[C@@H](C)[C@@H](CN(C)S(=O)(=O)c2ccc(Cl)cc2)OCCCC[C@H](C)O3)cc1 | inactive
28 | COc1cccc(S(=O)(=O)N2C[C@H](O)COC[C@H]3O[C@@H](CC(=O)N4CCN(C)CC4)CC[C@@H]32)c1 | inactive
29 | C[C@H]1CN([C@@H](C)CO)C(=O)Cc2cc(NC(=O)Nc3ccccc3)ccc2O[C@@H]1CN(C)C(=O)Nc1ccc(C(F)(F)F)cc1 | inactive
30 | C[C@@H]1CCCCO[C@H](CN(C)Cc2ccc(C(F)(F)F)cc2)[C@@H](C)CN([C@H](C)CO)C(=O)c2cc(NC(=O)c3ccccc3)ccc2O1 | inactive
31 | C[C@@H]1CN([C@@H](C)CO)C(=O)Cc2cc(NS(=O)(=O)c3cn(C)cn3)ccc2O[C@H]1CN(C)S(=O)(=O)c1cn(C)cn1 | inactive
32 | N[C@H]1CCCC[C@@H]1OCc1ccccc1 | inactive
33 | C[C@H]1CN([C@@H](C)CO)C(=O)Cc2cc(NC(=O)C3CCCCC3)ccc2O[C@H]1CN(C)Cc1ccc(-c2ccccc2)cc1 | inactive
34 | C#CCN([C@H](/C=C/C1CC1)[C@@H](O)Cc1ccccc1)[C@@H](Cc1ccc(-n2cc(CCC(=O)NO)nn2)cc1)C(=O)OC | inactive
35 | CC(C)CC#Cc1ccc2c(c1)O[C@H](CN(C)C(=O)C1CCOCC1)[C@H](C)CN([C@@H](C)CO)S2(=O)=O | inactive
36 | OCc1ccccc1OC1OC(CO)C(O)C(O)C1O (stereo not given) | inactive
37 | NCCOc1ccccc1Cc1ccccc1 | inactive
38 | C=C(C)C1CC=C(C(=O)O)CC1 (stereo not given) | inactive
39 | C[C@H]1CN([C@@H](C)CO)C(=O)Cc2cc(NS(=O)(=O)c3cccs3)ccc2O[C@H]1CN(C)S(=O)(=O)c1cccs1 | inactive
40 | CC(C)NC(=O)N(C)C[C@@H]1Oc2ccc(NC(=O)Cc3ccccc3)cc2C(=O)N([C@@H](C)CO)C[C@H]1C | inactive
